This note sets out measurements from PubChem BioAssay AID360 (National Center for Advancing Translational Sciences (NCATS), 2006).

The whole screen tested about 48,000 compounds, of which about 550 (1.1%) were called active. About 4% were inconclusive and are not listed. No stated cut-off is given here; in the data, active means potency below about 15 µM; inconclusive means mostly about 16 µM to 33 µM; inactive means weaker than that. This is one part of the list. Some results are limits rather than exact numbers.
Potency means the concentration at half of the fitted maximal effect.

Sequence of UniProt P04062 (P04062 whole entry, looked up): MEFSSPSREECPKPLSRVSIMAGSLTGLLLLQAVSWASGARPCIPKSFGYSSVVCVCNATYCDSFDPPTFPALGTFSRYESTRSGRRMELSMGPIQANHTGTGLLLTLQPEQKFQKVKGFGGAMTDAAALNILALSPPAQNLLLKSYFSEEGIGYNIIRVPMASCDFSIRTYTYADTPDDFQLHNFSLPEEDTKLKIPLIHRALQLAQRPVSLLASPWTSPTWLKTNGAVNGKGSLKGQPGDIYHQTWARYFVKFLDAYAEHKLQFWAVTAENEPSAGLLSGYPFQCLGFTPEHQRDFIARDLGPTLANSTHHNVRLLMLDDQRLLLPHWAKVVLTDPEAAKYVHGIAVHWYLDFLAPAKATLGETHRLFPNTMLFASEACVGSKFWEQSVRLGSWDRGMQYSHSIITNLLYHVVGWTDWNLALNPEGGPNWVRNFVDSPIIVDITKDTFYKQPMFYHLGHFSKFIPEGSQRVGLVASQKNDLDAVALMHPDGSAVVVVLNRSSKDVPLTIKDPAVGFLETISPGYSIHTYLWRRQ

For this assay, the target named is Lysosomal acid glucosylceramidase (Homo sapiens) (UniProt P04062). Put plainly: Glucocerebrosidase.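 Further: the screen sought inhibitors.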 The conditions noted are these: purified enzyme, resorufin glucoside fluorescence (screen aimed at inhibitors), 20 min; series mostly up to 77 µM. A digest of the protocol:
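Compounds titrated against 0.2 nM normal enzyme, 30 uM resorufin beta-D-glucopyranoside substrate, citrate/phosphate buffer with taurocholate and tween-20, pH 5.9. Reaction ran 20 min at room temperature; fluorescence (Ex 548/Em 600) gave AC50.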
`CCOC(=O)Cc1[nH]nc2c1C(c1ccoc1)C(C#N)=C(N)O2` (stereo not drawn): the Potency was inactive: > 76.9 µM.

As to `COc1ccc(-n2ccnc2SCC(=O)NCc2ccc3c(c2)OCO3)cc1`, the Potency is inactive: > 76.9 µM.

For the compound `CCc1nnc(NC(=O)CSc2nnc(CSc3nc(C)cc(C)n3)n2C)s1`, the Potency is inactive: > 76.9 µM.

For the compound `O=C(Nc1ccccc1O)c1cc(S(=O)(=O)N2CCOCC2)ccc1Cl`, the Potency is inactive: > 76.9 µM.

As for `Cc1cc(C)c(NC(=O)CS(=O)CC(=O)N2CCN(c3ccc(F)cc3)CC2)c(C)c1` (stereo not drawn), the Potency was inactive: > 76.9 µM.

For `COc1ccc(C)cc1NC(=O)NCCC1=CCCCC1`, the Potency is inactive: > 76.9 µM.

For the compound `CC1(C)SC2c3ccccc3C(=O)N2[C@@H]1C(=O)NCc1ccco1` (stereo partly drawn), the Potency was inactive: > 76.9 µM.

Consider `CC(C)C(c1nnnn1Cc1cccs1)N1CCN(C2CCCC2)CC1` (stereo not drawn), for which the Potency is inactive: > 76.9 µM.

With `NC(=O)N1c2ccccc2CC(=O)c2ccccc21`, the Potency is inactive: > 76.9 µM.

With `CC(C)[C@H](NC(=O)NC1CCCC1)C(=O)O`, the Potency is inactive: > 76.9 µM.

Consider `O=C(O)c1ccc2cc[nH]c2c1`, for which the Potency was inactive: > 76.9 µM.

In the case of `Cc1cc(NC(=O)Cn2nc(C(F)(F)F)c3c2CCC3)no1`, the Potency was inactive: > 76.9 µM.

Consider `O=C(CCn1c(=O)[nH]c2ccccc2c1=O)Nc1ccccc1`, for which the Potency was inactive: > 76.9 µM.

Turning to `O=C(COCc1nc2ccccc2c(=O)[nH]1)NC1CCCC1`, the Potency was inactive: > 76.9 µM.

In the case of `COc1ccc(NC(=O)CC2C(=O)N(c3ccc(OC)cc3)C(=O)N2CCN2CCN(C)CC2)cc1` (stereo not drawn), the Potency was inactive: > 76.9 µM.

As to `O=C(Nc1cccc2ncccc12)c1cccnc1`, the Potency is inactive: > 76.9 µM.

As for `O=c1n(-c2ccccc2)c(=O)n2n1CCC2`, the Potency is inactive: > 76.9 µM.

Consider `Cc1cccc(-c2cc3nc(C)cc(NCCCN(C)C)n3n2)c1`, for which the Potency was inactive: > 76.9 µM.

As for `Cc1ccc(C2CC(=O)c3cnc(NC(=O)c4ccco4)nc3C2)cc1` (stereo not drawn), the Potency was inactive: > 76.9 µM.

`O=C(CSc1nnc2sc3ccccc3n12)NCc1ccco1`: the Potency is inactive: > 76.9 µM.

For `CCOC(=O)N1CCN(c2ncnc3c2cnn3-c2ccc(Cl)cc2)CC1`, the Potency is inactive: > 76.9 µM.

Regarding `CN(C)CCOC(=O)C1(c2ccccc2)CCOCC1`, the Potency was inactive: > 76.9 µM.

Turning to `Cc1cccc(C)c1NC(=O)N1CCC(N2CCCCC2)CC1`, the Potency was inactive: > 76.9 µM.

In the case of `O=S(=O)(c1cccs1)N1CCc2ccccc21`, the Potency was inactive: > 76.9 µM.

Consider `COc1cccc(C2C(C#N)=C(N)OC3=C2C(=O)CCC3)c1OC(=O)c1ccco1` (stereo not drawn), for which the Potency is inactive: > 76.9 µM.

In the case of `Cc1cccc2cc(CN(Cc3ccc(F)cc3)Cc3nnnn3C3CCCC3)c(=O)[nH]c12`, the Potency is inactive: > 76.9 µM.

For the compound `CCCCN(CCCNC(=O)C1CCCN(S(=O)(=O)CC)C1)Cc1ccccc1` (stereo not drawn), the Potency was inactive: > 76.9 µM.

Take `CCN(CC)Cc1c(C(=O)OC)nnn1-c1nonc1N`: the Potency was inactive: > 76.9 µM.

As for `CN=C(Nc1cc(C)nn1-c1ccccc1)c1ccc(F)cc1`, the Potency was inactive: > 76.9 µM.

As to `COc1cc2ccccc2cc1C(=O)OCC(=O)N1CCOCC1`, the Potency is inactive: > 76.9 µM.

In the case of `CCN(CC)CCCN1C(=O)C(O)=C(C(=O)c2ccco2)C1c1ccc(C)o1` (stereo not drawn), the Potency was inactive: > 76.9 µM.

In the case of `O=C(NC1=NCCS1)C12CC3CC(C1)CC(C(=O)NC1=NCCS1)(C3)C2`, the Potency was inactive: > 76.9 µM.

In the case of `c1ccc(-n2cnc3cc(NCc4ccncc4)ccc32)cc1`, the Potency is inactive: > 76.9 µM.

`CCN(CC)CCCNC(=O)c1cc(-c2ccc(Cl)c(Cl)c2)on1`: the Potency is inactive: > 76.9 µM.

As for `CCOC(=O)Cn1c(=O)c2c(nc3n2CCCCN3c2ccc(OCC)cc2)n(C)c1=O`, the Potency is inactive: > 76.9 µM.

Regarding `O=C(NCc1ccco1)c1cc2sccc2n1Cc1ccccc1`, the Potency is inactive: > 76.9 µM.

Regarding `CCOC(=O)CC(N)c1ccc(OC)cc1` (stereo not drawn), the Potency is inactive: > 76.9 µM.

Regarding `COc1ccc(COC(=O)c2ccc(N3CCCC3=O)cc2)cc1F`, the Potency is inactive: > 76.9 µM.

As for `Cn1cnnc1SCCn1c(N2CCCCC2)nc2c1c(=O)[nH]c(=O)n2C`, the Potency is inactive: > 76.9 µM.

`CCNC(=O)CSc1nc2ccccc2c(=O)n1CCCOC(C)C`: the Potency is inactive: > 76.9 µM.

As for `COc1cccc(-c2nnc(SCc3nc4ccccc4[nH]3)n2N)c1`, the Potency is inactive: > 76.9 µM.

Turning to `CCOC(=O)c1c(NC(C)=O)sc2c1CCCNC2=O`, the Potency was inactive: > 76.9 µM.

`O=C(CN1C(=O)COc2ccccc21)c1ccc(Cl)cc1`: the Potency is inactive: > 76.9 µM.

Take `C=CCn1c(N)c(C(=O)OC(C)CC)c2nc3ccccc3nc21` (stereo not drawn): the Potency was inactive: > 76.9 µM.

In the case of `CCCn1c(SCC(=O)OCc2ccccc2)nc2c1c(=O)n(C)c(=O)n2C`, the Potency is inactive: > 76.9 µM.

With `COc1ccc(OC)c(NC(=O)C2CCCCC2C(=O)O)c1` (stereo not drawn), the Potency is inactive: > 76.9 µM.

As for `COn1c(SCC(N)=O)nc2ccccc2c1=O`, the Potency is inactive: > 76.9 µM.

With `Clc1c(-c2nnc3n2CCCCC3)sc2ccccc12`, the Potency was inactive: > 76.9 µM.

With `CCOc1ccc2[nH]cc(C(=O)O)c(=O)c2c1`, the Potency is inactive: > 76.9 µM.

Turning to `COc1ccc(OC)c(CNC(=O)C2CCN(S(=O)(=O)N3CCCC3)CC2)c1`, the Potency was inactive: > 76.9 µM.

Consider `CCCCCCn1c(CN2CCCCC2)nc2c1c(=O)n(C)c(=O)n2C`, for which the Potency is inactive: > 76.9 µM.

Turning to `CCOC(=O)C1=C(c2ccccc2)N2CCN=C2S1`, the Potency was inactive: > 76.9 µM.

As to `COc1ccc(F)c(C2C(C#N)=C(N)Oc3n[nH]c(C(C)(C)C)c32)c1` (stereo not drawn), the Potency is inactive: > 76.9 µM.

For `Cc1ccccc1OCC1CN(CN2CCOCC2)C(=O)O1` (stereo not drawn), the Potency is inactive: > 76.9 µM.

With `CC(C)n1c(N2CCN(C(=O)c3cccs3)CC2)nc2ccccc21`, the Potency is inactive: > 76.9 µM.

For the compound `CCOC(=O)c1oc2cccc(OC(C)=O)c2c1C`, the Potency is inactive: > 76.9 µM.

With `COc1cccc(-n2c(SCC(=O)NC(C)(C)C)nnc2-c2ccoc2C)c1`, the Potency was inactive: > 76.9 µM.

In the case of `CC(C)OC(=O)CSc1nnc(-c2cnccn2)n1-c1ccccc1`, the Potency was inactive: > 76.9 µM.

Take `O=S(=O)(c1ccc(Oc2ccccc2)cc1)N1CCOCC1`: the Potency was inactive: > 76.9 µM.

Consider `CCN1CCCC1CNS(=O)(=O)c1cc(Br)cc2c1N(C(=O)C1CC1)CC2` (stereo not drawn), for which the Potency is inactive: > 76.9 µM.

In the case of `NC(=O)c1c(NC(=O)CN2CCCC2)sc2c1CCCC2`, the Potency was inactive: > 76.9 µM.

Take `O=c1n(Cc2ccccc2Cl)c2sc3c(c2c2ncnn12)CCCC3`: the Potency was inactive: > 76.9 µM.

Consider `O=c1oc2ccccc2cc1C1=Nn2c(nnc2-c2cccnc2)SC1`, for which the Potency is inactive: > 76.9 µM.

On to `CC(=O)Nc1ccn(Cc2c(F)cccc2Cl)n1`, for which the Potency was inactive: > 76.9 µM.

On to `O=C(O)C1CCCCC1C(=O)Nc1cnn(Cc2ccccc2)c1` (stereo not drawn), for which the Potency is inactive: > 76.9 µM.

Turning to `CS(=O)(=O)N1CCN(C(=O)C(Sc2ccccc2)c2ccccc2)CC1` (stereo not drawn), the Potency was inactive: > 76.9 µM.

For `Cc1ccc(S(=O)(=O)C2(C(=O)N3CCCCC3C)CC2)cc1` (stereo not drawn), the Potency was inactive: > 76.9 µM.

Regarding `CCOC(=O)c1c(C)oc2ccc(O)c(CN3CCCCC3)c12`, the Potency is inactive: > 76.9 µM.

Turning to `O=C1NC2=C(C(=O)c3ccccc32)C(c2ccccc2)N1` (stereo not drawn), the Potency was inactive: > 76.9 µM.

Turning to `COC(=O)C1=C(N)Oc2cc(C)n(C)c(=O)c2C1c1ccc(Cl)c(Cl)c1` (stereo not drawn), the Potency is inactive: > 76.9 µM.

In the case of `[O-][N+]12CC[N+]([O-])(CC1)c1ccccc12`, the Potency is inactive: > 76.9 µM.

With `Cc1c(C(Nc2ccccn2)c2ccc(Cl)cc2)c(=O)n(-c2ccccc2)n1C` (stereo not drawn), the Potency was inactive: > 76.9 µM.

For `COC(=O)C1CCN(c2cc(=O)n(Cc3ccc(F)cc3)c(=O)[nH]2)CC1`, the Potency was inactive: > 76.9 µM.

Regarding `O=C(Nc1ccc(C(=O)N2CCOCC2)cc1)c1cccs1`, the Potency is inactive: > 76.9 µM.

Consider `COc1ccc(-c2nc(SC)n(C)c(=O)c2C#N)cc1OC`, for which the Potency was inactive: > 76.9 µM.

`CCN1CCN(Cc2cc(=O)oc3ccc(Cl)cc23)CC1`: the Potency is inactive: > 76.9 µM.

As to `Cc1ccnc(NC(=O)Nc2cccc(F)c2)c1`, the Potency is inactive: > 76.9 µM.

Turning to `c1ccc(-c2nc(NCc3cccnc3)c3oc4ccccc4c3n2)cc1`, the Potency is inactive: > 76.9 µM.

Take `CC(c1ccco1)N(C(=O)c1ccc(Cl)s1)c1ccccn1` (stereo not drawn): the Potency was inactive: > 76.9 µM.

Regarding `Cc1ccc(S(=O)(=O)N2CCN(C(=O)N3CCOCC3)C2C)cc1` (stereo not drawn), the Potency is inactive: > 76.9 µM.

With `CCC(C)(C)NC(=O)c1ccc2c(c1)N(CC(=O)OC)C(=O)C(C)(C)O2`, the Potency is inactive: > 76.9 µM.

Regarding `OCCNCC1(O)C2CC3CC(C2)CC1C3` (stereo not drawn), the Potency is inactive: > 76.9 µM.

For the compound `CC(C)Cn1cnc2c(N)nc3ccccc3c21`, the Potency was inactive: > 76.9 µM.

As for `C#CCNc1c(C)c(C)nc2ncnn12`, the Potency is inactive: > 76.9 µM.

As to `Cc1nc2ccc(C(=O)N3CCSCC3)cc2s1`, the Potency is inactive: > 76.9 µM.

Turning to `CCOC(=O)C(Cc1ccccc1)NC(=O)Cn1nnc(-c2ccccc2)n1` (stereo not drawn), the Potency is inactive: > 76.9 µM.

As for `O=C(c1ccccc1)N(Cc1cccs1)C1CCS(=O)(=O)C1` (stereo not drawn), the Potency was inactive: > 76.9 µM.

Turning to `CCOC(=O)c1c(C)c(C(=O)N2CCN(C(=O)c3ccco3)CC2)c(C)n1C`, the Potency is inactive: > 76.9 µM.

On to `CCC(=O)Nc1cccc(NC(=O)CN2CCN(c3ccccc3OC)CC2)c1`, for which the Potency is inactive: > 76.9 µM.

On to `COC(=O)NCC(C)OC(=O)Nc1cccc(Cl)c1` (stereo not drawn), for which the Potency was inactive: > 76.9 µM.

As for `Cc1c(C(=O)N2CCc3ccccc3C2)sc2nc(-c3ccccc3)cn12`, the Potency is inactive: > 76.9 µM.

Turning to `O=C(c1cccc(F)c1)N1CCN(c2cccc(Cl)c2)CC1`, the Potency is inactive: > 76.9 µM.

On to `CCN(c1cccc(C)c1)S(=O)(=O)c1cccc2nsnc12`, for which the Potency was inactive: > 76.9 µM.
